Where “and” joins values, the source holds several entries; their conditions need not be identical. Identical values can stand only once. Counter-ions that a name gives are not always drawn. The list shows a part of the results. No stated cut-off is given here; in the data, active = 0.5 or less and inactive = the rest. Most values come without repeats; read them as rough.
Key:
Conditions in all cases: 50 µM; 24 h
[1] = tested on: HeLa VPS33A reporter cells; assay: relative cell viability (CellMask signal) vs DMSO (fraction of DMSO); higher = less cytotoxic;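 further: primary screen of an FDA-approved drug library in HeLa reporter cells in 96-well format, CellMask signal normalized to DMSO-treated wells set as 1, under 0.5 deemed highly cytotoxic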
[2] = tested on: HeLa VPS33A R498W KI + HA-SDC1-FLAG; assay: relative GAG core protein HA-SDC1 amount per cell number vs DMSO (fraction of DMSO); higher = more SDC1 (GAG core protein);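 further: HA-SDC1 level read out by In-Cell Western staining with an anti-HA antibody against the N-terminal tag, screening FDA-approved library drugs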
[3] = tested on: HeLa VPS33A KO + NLuc-VPS33A R498W; assay: relative mutant VPS33A R498W amount (NanoLuc luminescence) vs DMSO (fraction of DMSO); HeLa model of a glycosaminoglycan (GAG) storage disease; KI is knock-in and KO knock-out; SDC1 is syndecan 1; higher = higher mutant VPS33A level;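 further: screen of an FDA-approved drug library, NanoLuc luminescence read after lysing the treated cells, taken as a measure of mutant VPS33A protein stability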

Compound	relative cell viability [1]	relative GAG core protein HA-SDC1 amount per cell number [2]	relative mutant VPS33A R498W amount [3]
CC(O)(CS(=O)(=O)c1ccc(F)cc1)C(=O)Nc1ccc(C#N)c(C(F)(F)F)c1 (centres undefined) [Bicalutamide]	1.01	inactive: 1.22	1.43
N[C@@H]1C[C@H]1c1ccccc1 [Tranylcypromine hydrochloride]	1.06	inactive: 0.849	1.22
O=C(O)c1nn(Cc2ccc(Cl)cc2Cl)c2ccccc12 [Lonidamine]	1	inactive: 0.835	0.995
CN(C)[C@@H]1C(=O)C(C(N)=O)=C(O)[C@@]2(O)C(=O)C3=C(O)c4c(O)ccc(Cl)c4[C@@](C)(O)[C@H]3C[C@@H]12 [Chlortetracycline HCl]	1	inactive: 0.53	0.553
CCOC(=O)Nc1ccc(NCc2ccc(F)cc2)cc1N [Retigabine]	1.06	inactive: 0.958	1.38
NCCc1c[nH]c2ccc(O)cc12 [Serotonin HCl]	0.984	inactive: 0.669	1.02
CN(CC(=O)O)C(=N)NP(=O)(O)O [Phosphocreatine disodium salt]	1.04	inactive: 1.14	0.999
NC[C@H](CC(=O)O)c1ccc(Cl)cc1 [(R)-baclofen]	1.32	inactive: 1.5	1.08
C=CCN1CC[C@]23c4c5ccc(O)c4O[C@H]2C(=O)CC[C@@]3(O)[C@H]1C5 [Naloxone HCl]	1.02	inactive: 1.06	1.21
CC(C)NCC(O)c1ccccc1Cl (centres undefined) [Clorprenaline HCL]	1.01	inactive: 0.941	1.13
C[N+]1(C)CCCC(OC(=O)C(O)(c2ccccc2)c2ccccc2)C1 (centres undefined) [Mepenzolate Bromide]	1.05	inactive: 1.03	1.04
C[C@H]1C(=O)O[C@@H]2CCN3CC=C(COC(=O)[C@](C)(O)[C@]1(C)O)[C@H]23 [Crotaline]	0.962	inactive: 0.804	1.13
O=C(O[C@H]1C[C@H]2CC[C@@H](C1)[N+]21CCCC1)C(O)(c1ccccc1)c1ccccc1 [Trospium chloride]	1.03	inactive: 0.995	1.13
O=[N+]([O-])O[C@@H]1CO[C@H]2[C@@H]1OC[C@@H]2O [Isosorbide 5-mononitrate]	0.998	inactive: 0.897	1.38
NCC1(CC(=O)O)CCCCC1 [Gabapentin]	1.05	inactive: 1.59	0.747
CCOC(=O)c1cncn1[C@H](C)c1ccccc1 [Etomidate]	1.17	inactive: 1.12	1.13
N#C[C@H](O[C@@H]1O[C@H](CO[C@@H]2O[C@H](CO)[C@@H](O)[C@H](O)[C@H]2O)[C@@H](O)[C@H](O)[C@H]1O)c1ccccc1 [Amygdalin]	1.15	inactive: 0.962	1.41
CC[C@H]1CN2CC[C@]3(C(=O)Nc4ccccc43)[C@@H]2C[C@@H]1/C(=C\OC)C(=O)OC [Rhynchophylline]	0.931	inactive: 0.631	1.09
NCC(CC(=O)O)c1ccc(Cl)cc1 (racemic) [(±)-Baclofen]	1.01	inactive: 0.902	1.1
C[C@]12CC[C@@H](O)C[C@@H]1CC[C@@H]1[C@@H]2CC[C@]2(C)C(=O)CC[C@@H]12 [Androsterone]	0.968	inactive: 0.75	1.45
N=C(N)NN [Aminoguanidine hydrochloride]	1.12	inactive: 0.826	1.02
CC1C=CC=CCCC=CC=CC=CC=CC(OC2OC(C)C(O)C(N)C2O)CC2OC(O)(CC(O)C(O)CCC(O)CC(O)CC(O)CC(=O)OC(C)C(C)C1O)CC(O)C2C(=O)O (centres undefined) [Nystatin (Fungicidin)]	0.935	inactive: 1.08	1.24
C[C@@H]1CC[C@H]2[C@@H](C)C(=O)O[C@@H]3O[C@@]4(C)CC[C@@H]1[C@]32OO4 [Artemisinine]	1.09	inactive: 0.923	0.974
CC(C)c1cccc(C(C)C)c1O [Propofol]	1.02	inactive: 0.911	0.672
CCCC[N+]1(C)[C@@H]2C[C@@H](OC(=O)[C@H](CO)c3ccccc3)C[C@H]1[C@@H]1O[C@@H]12 (some centres undefined) [Scopolamine butylbromide]	0.867	inactive: 0.584	0.847
Nc1nc(N)nc(N)n1 [Melamine]	1.04	inactive: 0.873	1.54
C[C@]12CC[C@H](O)C[C@@H]1CC[C@@H]1[C@@H]2CC[C@]2(C)C(=O)CC[C@@H]12 [Epiandrosterone]	1.06	inactive: 0.527	0.472
Cc1ccccc1O [o-Cresol]	1.01	inactive: 0.894	1.2

Compound	relative cell viability [1]	relative GAG core protein HA-SDC1 amount per cell number [2]	relative mutant VPS33A R498W amount [3]
COc1ccc2c(c1)[nH]c1c(C)nccc12 [Harmine hydrochloride]	0.679	active: 0.285	2.83
CNC1CC(N)C(O)C(OC2OC(CO)C(O)C3OC4(OC(C(N)CO)C(O)C(O)C4O)OC23)C1O (centres undefined) [Hygromycin B]	1.37	inactive: 1.12	1.09
CC(=O)O[C@@]12CO[C@@H]1C[C@H](O)[C@@]1(C)C(=O)[C@H](O)C3=C(C)[C@@H](O)C[C@@](O)([C@@H](OC(=O)c4ccccc4)[C@H]21)C3(C)C [10-DAB (10-Deacetylbaccatin)]	0.0622		
CC(NC(C)(C)C)C(=O)c1cccc(Cl)c1 (centres undefined) [Bupropion hydrochloride]	1.03	inactive: 0.772	0.968
C/C(=C\c1csc(C)n1)[C@@H]1C[C@@H]2O[C@]2(C)CCC[C@H](C)[C@H](O)[C@@H](C)C(=O)C(C)(C)[C@@H](O)CC(=O)O1 [Epothilone B (EPO906, Patupilone)]	0.0904		
C[C@]12CC[C@H]3[C@@H](CC[C@@]45O[C@@H]4C(O)=C(C#N)C[C@]35C)[C@@H]1CC[C@@H]2O [Trilostane]	0.126		
CCCCCCCCCCCCCCCC[n+]1ccccc1 [Cetylpyridinium Chloride]	0.00363		
Cc1c(N)nc(C(CC(N)=O)NCC(N)C(N)=O)nc1C(=O)NC(C(=O)NC(C)C(O)C(C)C(=O)NC(C(=O)NCCc1nc(-c2nc(C(=O)NCCC[S+](C)C)cs2)cs1)C(C)O)C(O[C@@H]1O[C@@H](CO)[C@@H](O)[C@H](O)[C@@H]1O[C@H]1O[C@H](CO)[C@@H](O)[C@H](OC(N)=O)[C@@H]1O)c1cnc[nH]1 (some centres undefined) [Bleomycin Sulfate]	1.41	inactive: 1.25	0.789
CN1[C@@H]2CC[C@H]1C[C@@H](OC(=O)C(CO)c1ccccc1)C2 (some centres undefined) [Atropine]	1.33 and 1.08	inactive: 1.41 and inactive: 0.834	0.861 and 1.39
CC(C)[C@]12O[C@H]1[C@@H]1O[C@@]13[C@@]1(C)CCC4=C(COC4=O)[C@@H]1C[C@@H]1O[C@@]13C2=O [Triptonide]	0.0254		
C[C@@H]1O[C@@H](O[C@H]2C[C@@H](O)[C@]3(CO)[C@H]4[C@H](O)C[C@]5(C)[C@@H](C6=CC(=O)OC6)CC[C@]5(O)[C@@H]4CC[C@]3(O)C2)[C@H](O)[C@H](O)[C@H]1O [Ouabain]	0.0879		
COc1cc2c3c(c1OC)-c1ccccc1C[C@H]3N(C)CC2 [Nuciferine]	0.00557		
Cn1c(COP(=O)(NCCBr)NCCBr)cnc1[N+](=O)[O-]	1.08	inactive: 0.665	1.25
O=P1(NCCCl)OCCCN1CCCl (centres undefined) [Ifosfamide]	1.2	inactive: 1.19	0.823
C[C@@H]1O[C@@H](O[C@H]2C[C@@H](O)[C@]3(CO)[C@H]4[C@H](O)C[C@]5(C)[C@@H](C6=CC(=O)OC6)CC[C@]5(O)[C@@H]4CC[C@]3(O)C2)[C@H](O)[C@H](O)[C@H]1O [Ouabain Octahydrate]	0.00754		
C[N+]1(C)[C@@H]2C[C@@H](OC(=O)[C@H](CO)c3ccccc3)C[C@H]1[C@@H]1O[C@@H]12 [Methscopolamine]	1.13	inactive: 0.632	1.21
CC[C@H](C)[C@@H]([C@@H](CC(=O)N1CCC[C@H]1[C@H](OC)[C@@H](C)C(=O)N[C@H](C)[C@@H](O)c1ccccc1)OC)N(C)C(=O)[C@@H](NC(=O)[C@@H](NC)C(C)C)C(C)C [Monomethyl auristatin E]	0.474		
COc1cc2c(c(OC)c1OC)-c1ccc(OC)c(=O)cc1[C@@H](NC(C)=O)CC2 [Colchicine]	0.265		
CCC(COC(=O)c1cc(OC)c(OC)c(OC)c1)(c1ccccc1)N(C)C (centres undefined) [Trimebutine]	0.464		
Cc1cccc(C)c1NC1=NCCCS1 [Xylazine HCl]	1.23	inactive: 0.925	1.24
COc1cccc2c1cc([N+](=O)[O-])c1c(C(=O)O)cc3c(c12)OCO3 [Aristolochic Acid A]	0.0624		
Cc1cccc(Cc2c[nH]cn2)c1C [Detomidine HCl]	1.19	inactive: 1.02	1.06
C[C@]12CCC(=O)C=C1C=C[C@@H]1[C@@H]2CC[C@@]2(C)[C@H]1CC[C@@]2(O)CCC(=O)O [Potassium Canrenoate]	1.12	inactive: 1.47	0.759
O=C(O[C@H]1C[N+]2(CCCOc3ccccc3)CCC1CC2)C(O)(c1cccs1)c1cccs1 [Aclidinium Bromide]	1.04	inactive: 0.725	1.13
N.N.[Cl][Pt][Cl] [Cisplatin]	1.3	inactive: 0.563	1.3
C[N+](C)(C)CCCCCCCCCC[N+](C)(C)C [Decamethonium Bromide]	0.982	inactive: 1.01	1.37
CC(C)[C@]12O[C@H]1[C@@H]1O[C@]13[C@]1(O[C@H]1C[C@H]1C4=C(CC[C@@]13C)C(=O)OC4)[C@@H]2O [Triptolide]	0.0271		
